Experimental data from the supplement of paper PMC7826260.
Some of the results follow. Cleavage of a single-stranded DNA pool by Rep nickase domains was read by sequencing (1 h at 37 °C, 3 µM enzyme); the outer parts of the 90-letter strands are left off. A value is the log2 ratio of uncut reads to the pool without enzyme; more negative means more cut, near 0 not cut, and no call is made. Shares of all reads are compared; values above 0 arise when much of the pool is cut.

Assays:
Assay in all cases: uncleaved DNA left, log2 of reads against the no-enzyme library (log2 ratio); higher = less cleavage (more negative = more Rep cleavage of the k-mer); sequences stand for … in CTCGTCCG…ACCGGAGA
[1] = tested on: T1, Rep nickase domain of Muscovy duck circovirus
T1 sequence (protein, residues 1-111, tag omitted): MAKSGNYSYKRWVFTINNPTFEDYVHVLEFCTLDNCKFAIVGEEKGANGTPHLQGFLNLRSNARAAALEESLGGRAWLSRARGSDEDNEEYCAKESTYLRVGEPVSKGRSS
Method: (§1)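 A pool of 90-nt single-stranded DNAs with seven random bases just before the constant AC of the nick site (name = the seven bases) was cut by 3 µM recombinant His6-SUMO-tagged Rep nickase domain (300 nM DNA, 50 mM HEPES pH 8.0, 50 mM NaCl, 1 mM MnCl2, 1 h, 37 °C, three replicates). Uncut DNA was amplified and sequenced.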

[2] = tested on: T2, Rep nickase domain of banana bunchy top virus
T2 sequence (protein, residues 1-94, tag omitted): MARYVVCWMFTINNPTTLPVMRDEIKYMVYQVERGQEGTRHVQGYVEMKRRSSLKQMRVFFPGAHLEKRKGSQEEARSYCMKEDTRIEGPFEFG
Method: as §1

[3] = tested on: T3, Rep nickase domain of cabbage leaf curl virus
T3 sequence (protein, residues 1-116, tag omitted): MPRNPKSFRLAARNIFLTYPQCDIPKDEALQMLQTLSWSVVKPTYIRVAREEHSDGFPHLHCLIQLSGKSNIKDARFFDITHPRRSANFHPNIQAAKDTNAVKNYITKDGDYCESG
Method: as §1

[4] = tested on: T4, Rep nickase domain of chickpea chlorotic dwarf virus
T4 sequence (protein, residues 1-124, tag omitted): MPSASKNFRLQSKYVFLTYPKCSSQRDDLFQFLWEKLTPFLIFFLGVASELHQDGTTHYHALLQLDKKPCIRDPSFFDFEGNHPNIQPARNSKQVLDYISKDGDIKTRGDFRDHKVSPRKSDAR
Method: as §1

[5] = tested on: T5, Rep nickase domain of faba bean necrotic yellows virus
T5 sequence (protein, residues 1-98, tag omitted): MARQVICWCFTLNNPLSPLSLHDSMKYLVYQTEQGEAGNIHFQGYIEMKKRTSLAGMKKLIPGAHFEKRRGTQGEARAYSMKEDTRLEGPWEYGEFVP
Method: as §1

[6] = tested on: T6, Rep nickase domain of maize striate mosaic virus
T6 sequence (protein, residues 1-117, tag omitted): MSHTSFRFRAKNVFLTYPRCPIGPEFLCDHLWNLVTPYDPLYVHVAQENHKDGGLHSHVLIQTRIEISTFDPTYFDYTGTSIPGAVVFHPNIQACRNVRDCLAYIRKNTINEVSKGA
Method: as §1

[7] = tested on: T7, Rep nickase domain of porcine circovirus 2
T7 sequence (protein, residues 2-116, tag omitted): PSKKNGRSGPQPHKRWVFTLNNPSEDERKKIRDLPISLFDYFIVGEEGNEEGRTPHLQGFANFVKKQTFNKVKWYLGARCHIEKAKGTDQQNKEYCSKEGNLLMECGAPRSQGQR
Method: as §1

[8] = tested on: T8, Rep nickase domain of tomato golden mosaic virus
T8 sequence (protein, residues 1-124, tag omitted): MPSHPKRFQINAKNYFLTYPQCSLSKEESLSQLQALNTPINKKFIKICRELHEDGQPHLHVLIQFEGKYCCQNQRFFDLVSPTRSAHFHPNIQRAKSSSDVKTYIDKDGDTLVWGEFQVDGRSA
Method: as §1

[9] = tested on: T9, Rep nickase domain of tomato yellow leaf curl virus
T9 sequence (protein, residues 1-136, tag omitted): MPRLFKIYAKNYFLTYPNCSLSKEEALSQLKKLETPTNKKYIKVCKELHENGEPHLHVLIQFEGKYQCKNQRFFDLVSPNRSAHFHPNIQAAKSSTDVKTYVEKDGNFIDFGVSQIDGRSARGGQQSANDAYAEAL
Method: as §1

[10] = tested on: T10, Rep nickase domain of wheat dwarf virus
T10 sequence (protein, residues 1-137, tag omitted): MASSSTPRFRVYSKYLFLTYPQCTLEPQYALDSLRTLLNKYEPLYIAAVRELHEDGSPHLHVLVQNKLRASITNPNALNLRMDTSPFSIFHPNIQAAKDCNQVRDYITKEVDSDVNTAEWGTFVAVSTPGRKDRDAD
Method: as §1

| Sequence | uncleaved DNA left (log2) [1] | uncleaved DNA left (log2) [2] | uncleaved DNA left (log2) [3] | uncleaved DNA left (log2) [4] | uncleaved DNA left (log2) [5] | uncleaved DNA left (log2) [6] | uncleaved DNA left (log2) [7] | uncleaved DNA left (log2) [8] | uncleaved DNA left (log2) [9] | uncleaved DNA left (log2) [10] |
| --- | --- | --- | --- | --- | --- | --- | --- | --- | --- | --- |
| ATTCCCC | -1.59 | -0.213 | -0.00521 | -0.177 | -0.153 | -0.309 | -2.6 | -0.0996 | -0.0857 | 0.0617 |
| GCATGGA | -0.0223 | -0.0731 | -0.0182 | 0.215 | -0.0347 | -0.339 | -0.0854 | -0.0256 | -0.0218 | 0.0178 |
| TGAGTGC | 0.0187 | -0.00657 | -0.365 | -0.318 | 0.00175 | -0.901 | 0.000963 | -0.0941 | -0.0189 | 0.00446 |
| CAATATG | -0.0573 | -0.0159 | -0.655 | -0.725 | 0.0405 | -1.26 | 0.0795 | -0.0225 | -0.041 | -0.0912 |
| GTGCGGT | -0.0361 | -0.197 | -0.204 | -0.000666 | -0.125 | -0.21 | 0.0545 | -0.0441 | -0.056 | -0.0801 |
| CAATTGG | 0.0452 | -0.0425 | -0.866 | -0.652 | 0.0558 | -1.29 | 0.149 | 0.00965 | 0.158 | -0.0288 |
| ACAAGAC | -0.0114 | -0.00456 | -0.044 | 0.349 | 0.0169 | -0.636 | 0.0992 | -0.0023 | -0.182 | -0.0214 |
| GGTTTCG | 0.119 | 0.0422 | -0.676 | -0.288 | -0.0165 | -0.545 | 0.223 | -0.119 | -0.00437 | -0.114 |
| GTGAGCG | -0.0416 | -0.0569 | -0.805 | -0.334 | 0.00654 | -0.994 | 0.0405 | -0.101 | -0.0427 | -0.154 |
| GTTATCC | 0.0235 | 0.113 | 0.347 | 0.913 | 0.0398 | 1.59 | 0.0675 | 0.0694 | 0.0512 | 0.0893 |
| TATCCAC | -0.127 | -0.0482 | 0.0495 | -0.296 | -0.0758 | -0.374 | -0.087 | -0.124 | -0.0323 | -0.0382 |
| ACGGACA | 0.0818 | 0.0323 | 0.245 | 0.503 | 0.00402 | 1.08 | 0.164 | 0.135 | 0.0417 | 0.0867 |
| TTTATTA | -0.0266 | 0.0233 | 0.226 | -0.713 | -0.0171 | 0.193 | -0.163 | 0.0663 | 0.0228 | 0.122 |
| CCAAAAC | -0.0235 | -0.0448 | 0.0188 | -0.499 | 0.0792 | -0.814 | 0.0879 | 0.011 | -0.0337 | 0.0373 |
| CACTCTC | -0.0767 | -0.329 | -0.107 | -0.637 | 0.0394 | -0.552 | -2.7 | 0.0533 | 0.101 | 0.0831 |
| CCCAACT | -0.0262 | -0.0562 | -0.398 | -2.42 | -0.0186 | -0.811 | -0.33 | -0.116 | -0.168 | -0.185 |
| CCACTTC | 0.127 | -0.0823 | -0.0761 | -0.684 | 0.00807 | -0.803 | 0.0569 | -0.0976 | -0.000406 | -0.0571 |
| GAGAGTC | -0.0188 | 0.0568 | 0.254 | 0.831 | 0.0296 | 0.816 | 0.041 | -0.0956 | 0.0529 | 0.0647 |
| GGACGGT | -0.0106 | 0.131 | 0.768 | 1.64 | -0.00809 | 2.21 | 0.167 | -0.00202 | 0.108 | 0.053 |
| TCGAGTA | -0.0307 | -0.0493 | -0.0359 | -0.199 | 0.0294 | 0.0487 | -0.596 | 0.021 | 0.0156 | -0.0457 |
| GACCCGA | 0.013 | 0.0398 | 0.465 | 1.15 | -0.0633 | 0.562 | 0.0944 | 0.0149 | -0.013 | 0.122 |
| GGTAGTC | 0.0889 | 0.0676 | 0.645 | 1.24 | 0.0447 | 1.75 | 0.142 | -0.0308 | 0.132 | 0.132 |
| CTCTGAC | 0.0826 | 0.0452 | 0.0276 | 0.159 | 0.119 | -0.115 | 0.144 | 0.00621 | 0.12 | 0.049 |
| GTCTAGA | -0.0989 | 0.114 | 0.3 | 0.798 | 0.0392 | 1.59 | 0.144 | 0.108 | 0.0588 | 0.0244 |
| TGACACT | 0.15 | -0.0146 | 0.404 | -0.621 | 0.0373 | 1.02 | -0.0148 | -0.14 | 0.0384 | 0.134 |
| AGTCAAC | 0.0439 | 0.0124 | 0.128 | -0.784 | -0.0254 | -0.296 | -0.121 | -0.023 | 0.0786 | 0.0346 |
| ACTTAGA | 0.0181 | -0.0423 | -0.404 | -0.35 | -0.019 | -1.27 | 0.0667 | 0.0236 | -0.059 | -0.0896 |
| CGGGCCC | -0.0171 | 0.0395 | 0.487 | 0.97 | 0.0384 | 1.44 | -0.00519 | -0.0861 | -0.0645 | 0.116 |
| TTCTACC | -2.14 | -0.21 | -0.238 | -2.2 | -0.266 | -0.261 | -2.76 | -0.193 | -0.0874 | -0.293 |
| CGAGCCT | 0.0713 | 0.0978 | -0.0817 | -0.238 | -0.00675 | 0.629 | -0.164 | -0.0238 | -0.0195 | 0.0621 |
